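Growth conditions: 96-well plates. Treatment: test compound, 48 hours, 5 concentrations. Analysis: linear interpolation between bracketing concentrations; unreached endpoints set to highest concentration. At the GI50, growth is halved. TGI is the concentration that stops growth completely.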

In PubChem BioAssay (NCI) one finds TGI and GI50 data, which are given here for 48 molecules.

This experiment has as its system NCI-H322M lung. The experiment is described as follows: NCI-60 cell line screen, 48 h.
For `COc1cc(C2c3cc4c(cc3OC(O)C2C)OCO4)cc(OC)c1OC` (centres undefined), the TGI is > 100 µM. Regarding `CN1CCN=C1c1nnn(-c2ccc([N+](=O)[O-])cc2)c1-c1ccccc1`, the TGI was > 100 µM. For the molecule `FC(F)c1ncc(-c2ccc(C(F)(F)F)cc2)c(NC2CCCCCC2)n1`, the GI50 was > 10 µM and the TGI is > 10 µM. On to `NC1=NC(SCc2ccccc2CCl)c2ncn(Cc3ccccc3CCl)c2N1` (centres undefined), for which the GI50 was 2.33 µM and the TGI worked out at 6.09 µM. In the case of `Cc1ccccc1-n1c(=S)[nH]c2c(sc(=O)n2-c2ccccc2C)c1=O`, the TGI was > 100 µM. Consider `CN1CCN(Cc2ccc(NC(=O)c3[nH]ncc3Nc3ncnc4[nH]ccc34)cc2)CC1`, for which the GI50 is 0.381 µM and the TGI stood at 2.03 µM.

Turning to `O=C1OCC2=C1C(c1cccc(C(F)(F)F)c1)c1cc3c(cc1N2CCO)OCCO3` (centres undefined), the GI50 is 2.3 µM and the TGI is > 33.3 µM.

On to `CCOC(=O)c1sc2c(C(=O)OCC)n3cc(C)cc(C)c3c2c1O`, for which the TGI was > 100 µM.

Regarding `O=C1OC(=O)C23CSCC12C1C=CC3O1` (centres undefined), the TGI was > 100 µM. `Cc1nc(NS(=O)(=O)c2ccc(NCN3C(=O)c4ccccc4C3=O)cc2)oc1C`: the GI50 was > 100 µM and the TGI is > 100 µM. Turning to `Cc1ccc(-n2nncc2[Si](C)(C)C)s1`, the TGI is > 100 µM.

Regarding `CCOC(=O)c1c(-c2ccccc2)[n+](=O)c2cc(F)c(F)cc2n1[O-]`, the GI50 was 1.71 µM and the TGI was 3.53 µM.

In the case of `O=c1[nH]c2ccccc2c(O)c1/C=N/C(=S)NC1CCCCC1`, the TGI was > 100 µM. The same measure, in the same setting: under `Nc1ccc2c(=O)cc(-c3ccc(Br)s3)[nH]c2n1` stands > 100 µM. In the case of `O=C(O)Cn1c2c(c3c1-c1ccccc1C3=O)C(=O)CCC2`, the GI50 is > 100 µM and the TGI is > 100 µM. Consider `COc1ccc2nc(C)cc(Sc3nc4ccccc4s3)c2c1`, for which the GI50 is 2.19 µM and the TGI is 11 µM. On to `O=c1[nH]n(CCc2ccccc2CCl)c2ccc([N+](=O)[O-])cc12`, for which the TGI was > 100 µM. Still for that read-out and setting: the value for `O=C1c2ccccc2C2(c3ccc(F)cc3)NCCN12` (centres undefined) was > 100 µM; that for `C=C(C)[C@@H]1CCc2c(O)c(O)c(=O)cc(C)c2C1` was > 100 µM.

Take `O=[N+]([O-])c1ccc(N2N=C(c3c(O)ccc4ccccc34)CC2c2ccc(Cl)cc2)c([N+](=O)[O-])c1` (centres undefined): the TGI is > 100 µM.

As to `Brc1cc(C2OCCCO2)ccc1OCc1ccccc1`, the TGI was > 100 µM. Take `O=C1CC(c2cccc(Cl)c2)Oc2ccccc21` (centres undefined): the TGI was > 100 µM.

On to `Cc1cc(Cl)cc2c1NC(=O)C2(O)CC(=O)c1ccc(Br)cc1` (centres undefined), for which the TGI is > 100 µM.

As to `CCOc1ccc2nc3nc(=O)[nH]c(C)c3c(NC(C)(CO)CO)c2c1`, the TGI was > 100 µM.

On to `CCOC(=O)C1CCC(=O)N1C(=O)c1cccc(Cl)c1` (centres undefined), for which the TGI is > 100 µM. Same read-out and setting: under `c1ccc2c[n+](CCCC[n+]3ccc4ccccc4c3)ccc2c1` stands > 100 µM; under `COc1ccc(-n2c(N)c(C#N)c(C#N)c2-c2ccco2)cc1`, > 100 µM. `O=C(Nc1ccc(-n2cc(-c3ccncc3)c(-c3ccc(O)c(Cl)c3)n2)cc1)c1ccc(Cl)c(C(F)(F)F)c1`: the GI50 was 13.8 µM and the TGI was > 50 µM.

Take `COc1cc(Cc2c(C)cc(OC)c3[nH]c4ccccc4c23)cc2c1[nH]c1ccccc12`: the GI50 was 7.25 µM and the TGI came to 24.1 µM.

For `Cc1cc(=O)[nH]c(NNC(C#N)c2ccccc2O)n1` (centres undefined), the TGI is > 100 µM.

In the case of `CCCCCCCC(=O)[O-].CCCCCCCC(=O)[O-].N.N.N.N.[Co+3].[O-][Cl+3]([O-])([O-])[O-]`, the GI50 was > 100 µM and the TGI is > 100 µM. As to `COc1ccc(/C=c2\[nH]c3nc(=O)c(N4CCCCC4)c(N)n3c2=O)cc1`, the TGI was > 100 µM. On to `CCC1CCCCN1CC(C(C)=O)C(c1ccccc1)c1c(O)c2ccccc2oc1=O` (centres undefined), for which the TGI was > 100 µM. Same read-out and setting: under `O=c1c2ccccc2nc(N/N=C/c2ccc([N+](=O)[O-])cc2)n1-c1ccccc1` stands > 100 µM. For the molecule `OCCCCC#Cc1ccccc1C#Cc1cccnc1`, the GI50 is 26.8 µM and the TGI is > 100 µM. For `CC(C)C[C@H](NC(=O)Cn1cccc(CNC(=O)c2ccccc2)c1=O)B(O)O`, in that order: 26.4 µM and > 100 µM. In the case of `COc1ccc(Br)c(CN2CCc3ccccc32)c1OS(=O)(=O)c1ccc(C)cc1`, the TGI is > 100 µM. Still for that read-out and setting: the value for `C/C(=C\Cc1ccc(F)cc1)CCCCCC/C(C)=C/Cc1ccc(F)cc1` was 68.2 µM; that for `c1cc2cc3c4c5c(cc6ccc7cc8cc9c%10c8c8c7c6c5c8c5c%10c(c1C9N1CCOCCOCCOCCOCCOCC1)c2c45)C3` (centres undefined) was > 100 µM. Same read-out and setting: under `Cn1c2ccccc2n2c3ncccc3c(=O)cc12` stands > 100 µM; under `COc1ccc2c(c1O)[C@@]13CCCC=C1[C@@H](C2)[N+](C)(C)CC3`, > 100 µM. On the same count and under the same terms, the value for `COc1c(C)c(C/C=C(\C)CCCC(C)CCCC(C)CCCC(C)C)c(OC)c2ccccc12` (centres undefined) was > 100 µM.

On to `Fc1ccc2c(c1)C1=C(CCC2)C(c2ccc(Cl)cc2)NC(=S)N1` (centres undefined), for which the GI50 is > 100 µM and the TGI is > 100 µM.

As for `Nc1c(C(=O)c2cccc(C(O)CO)c2)cnn1-c1ccc(F)cc1` (centres undefined), the GI50 is > 25 µM and the TGI was > 25 µM.

Take `NC1CCCCC1NCCNC1CCCCC1N` (centres undefined): the TGI is > 100 µM. Still for that read-out and setting: the value for `COc1ccc(CSC2=C(C#N)C(=O)NC3(CCCCC3)S2)cc1` was > 100 µM. As for `CCCCC#Cc1c(I)n(C2OC(CO[Si](C)(C)C(C)(C)C)C3OC(C)(C)OC32)c(=O)n(C(=O)c2ccccc2)c1=O` (centres undefined), the GI50 was 15.7 µM and the TGI was found to be 30.1 µM. As to `Cc1nc(C)c(N2CCN(CN)CC2)c(=O)[nH]1`, the TGI is > 100 µM.
